Patent publication US20200164029A1 (ACCELERON PHARMA, published 2020)

T1: human BMP-10 (human, UniProt O95393 317-424)
T1 construct: also called hBMP-10
T1 sequence (looked up): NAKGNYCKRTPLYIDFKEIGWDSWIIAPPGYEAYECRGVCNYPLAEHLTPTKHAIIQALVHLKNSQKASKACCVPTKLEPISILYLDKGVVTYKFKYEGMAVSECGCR

T2: human BMP-9 (human, UniProt Q9UK05 320-429)
T2 construct: also called hBMP-9
T2 sequence (looked up): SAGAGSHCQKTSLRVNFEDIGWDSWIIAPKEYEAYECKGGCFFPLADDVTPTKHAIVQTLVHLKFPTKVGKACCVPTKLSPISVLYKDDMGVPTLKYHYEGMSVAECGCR


Experiments:
[1] = biological target: T1, human BMP-10; assay: SPR kinetics, CHO-cell-derived protein
[2] = biological target: T2, human BMP-9; assay: SPR kinetics, captured CHO-cell-derived protein
Experimental: BMP-9 binding to captured CHO-cell-derived proteins was assessed at ligand concentrations of 0.0195-0.625 nM in two-fold increments. RU, response units.

[3] = biological target: T1, human BMP-10; assay: cell-based or functional assay
[4] = biological target: T2, human BMP-9; assay: cell-based or functional assay
[5] = biological target: T1, human BMP-10; assay: summary table of CHO-cell-derived fusion proteins; method not given
[6] = biological target: T2, human BMP-9; assay: as above
[7] = biological target: T1, human BMP-10; assay: cell-based or functional assay; remark: listed apart in the source
[8] = biological target: T2, human BMP-9; assay: cell-based or functional assay; remark: listed apart in the source
[9] = biological target: T2, human BMP-9; assay: SPR kinetics, HEK293-cell-derived protein
[10] = biological target: T1, human BMP-10; assay: SPR kinetics, HEK293-cell-derived protein

| Binder | Kd [1] [nM] | koff [1] [s⁻¹] | Kd [2] [nM] | koff [2] [s⁻¹] | IC50 (nM), BRE-luciferase reporter-gene assay in A204 cells [3] [nM] | IC50 (nM), BRE-luciferase reporter-gene assay in A204 cells [4] [nM] | Kd [5] [nM] | koff [5] [s⁻¹] | koff [6] [s⁻¹] | Potency (cell-based IC50) [7] [nM] | Potency (cell-based IC50) [8] [nM] | Kd [6] [nM] | Kd [9] [nM] | koff [9] [s⁻¹] | Kd [10] [nM] | koff [10] [s⁻¹] |
| --- | --- | --- | --- | --- | --- | --- | --- | --- | --- | --- | --- | --- | --- | --- | --- | --- |
| hENG(26-586)-hFc, CHO-cell-derived, with N-terminally truncated Fc domain (Fc fusion, also called full-length construct) ETVHCDLQPVGPERDEVTYTTSQVSKGCVAQAPNAILEVHVLFLEFPTGPSQLELTLQASKQNGTWPREVLLVLSVNSSVFLHLQALGIPLHLAYNSSLVTFQEPPGVNTTELPSFPKTQILEWAAERGPITSAAELNDPQSILLRLGQAQGSLSFCMLEASQDMGRTLEWRPRTPALVRGCHLEGVAGHKEAHILRVLPGHSAGPRTVTVKVELSCAPGDLDAVLILQGPPYVSWLIDANHNMQIWTTGEYSFKIFPEKNIRGFKLPDTPQGLLGEARMLNASIVASFVELPLASIVSLHASSCGGRLQTSPAPIQTTPPKDTCSPELLMSLIQTKCADDAMTLVLKKELVAHLKCTITGLTFWDPSCEAEDRGDKFVLRSAYSSCGMQVSASMISNEAVVNILSSSSPQRKKVHCLNMDSLSFQLGLYLSPHFLQASNTIEPGQQSFVQVRVSPSVSEFLLQLDSCHLDLGPEGGTVELIQGRAAKGNCVSLLSPSPEGDPRFSFLLHFYTVPIPKTGTLSCTVALRPKTGSQDQEVHRTVFMRLNIISPDLSGCTSKGTG[left out - human IgG1 Fc and a few adjoining residues] | 0.49 | 0.011 | 0.033 | 0.0025 | 7.9 | 0.26 | 0.49 | 0.011 | 0.0025 | 7.9 | 0.26 |  |  |  |  |  |
| hENG(26-359)-hFc, CHO-cell-derived, with N-terminally truncated Fc domain (Fc fusion) ETVHCDLQPVGPERDEVTYTTSQVSKGCVAQAPNAILEVHVLFLEFPTGPSQLELTLQASKQNGTWPREVLLVLSVNSSVFLHLQALGIPLHLAYNSSLVTFQEPPGVNTTELPSFPKTQILEWAAERGPITSAAELNDPQSILLRLGQAQGSLSFCMLEASQDMGRTLEWRPRTPALVRGCHLEGVAGHKEAHILRVLPGHSAGPRTVTVKVELSCAPGDLDAVLILQGPPYVSWLIDANHNMQIWTTGEYSFKIFPEKNIRGFKLPDTPQGLLGEARMLNASIVASFVELPLASIVSLHASSCGGRLQTSPAPIQTTPPKDTCSPELLMSLITG[left out - human IgG1 Fc and a few adjoining residues] | 0.086 | 0.0023 | 0.0042 | 0.00035 | 3.5 | 0.16 | 0.086 | 0.0023 | 0.00035 | 3.5 | 0.16 | 0.0042 |  |  |  |  |
| hENG(26-378)-hFc (truncated Fc) (Fc fusion, also called Human ENG(26-378)-hFc) ETVHCDLQPVGPERDEVTYTTSQVSKGCVAQAPNAILEVHVLFLEFPTGPSQLELTLQASKQNGTWPREVLLVLSVNSSVFLHLQALGIPLHLAYNSSLVTFQEPPGVNTTELPSFPKTQILEWAAERGPITSAAELNDPQSILLRLGQAQGSLSFCMLEASQDMGRTLEWRPRTPALVRGCHLEGVAGHKEAHILRVLPGHSAGPRTVTVKVELSCAPGDLDAVLILQGPPYVSWLIDANHNMQIWTTGEYSFKIFPEKNIRGFKLPDTPQGLLGEARMLNASIVASFVELPLASIVSLHASSCGGRLQTSPAPIQTTPPKDTCSPELLMSLIQTKCADDAMTLVLKKELVATG[left out - human IgG1 Fc and a few adjoining residues] |  |  |  |  |  |  |  |  |  |  |  |  | 0.0067 | 0.00034 | 0.095 | 0.0019 |
